In PubChem BioAssay AID504333 (National Center for Advancing Translational Sciences (NCATS), 2011):
Hit rate of the full screen: of about 360,000 compounds, about 16,000 (4.4%) were called active. Inconclusive results, whose numbers are uncertain, are shown with a selection of clear calls. Calls come from the whole dose curve; as a rule, active = well fitted inhibition curve with a large enough effect; inconclusive = small, poorly fitted or top-dose-only effect; inactive = no such curve, though single readings can be large or run the other way. Potencies beside an inconclusive call are fits to weak or partial responses and may not hold up. A structure can be active in one record and inactive in another.

Molecular target: Bromodomain adjacent to zinc finger domain protein 2B (Homo sapiens) (UniProt Q9UIF8)
UniProt Q9UIF8, sequence (Q9UIF8 whole entry, looked up, the tested form may be a part): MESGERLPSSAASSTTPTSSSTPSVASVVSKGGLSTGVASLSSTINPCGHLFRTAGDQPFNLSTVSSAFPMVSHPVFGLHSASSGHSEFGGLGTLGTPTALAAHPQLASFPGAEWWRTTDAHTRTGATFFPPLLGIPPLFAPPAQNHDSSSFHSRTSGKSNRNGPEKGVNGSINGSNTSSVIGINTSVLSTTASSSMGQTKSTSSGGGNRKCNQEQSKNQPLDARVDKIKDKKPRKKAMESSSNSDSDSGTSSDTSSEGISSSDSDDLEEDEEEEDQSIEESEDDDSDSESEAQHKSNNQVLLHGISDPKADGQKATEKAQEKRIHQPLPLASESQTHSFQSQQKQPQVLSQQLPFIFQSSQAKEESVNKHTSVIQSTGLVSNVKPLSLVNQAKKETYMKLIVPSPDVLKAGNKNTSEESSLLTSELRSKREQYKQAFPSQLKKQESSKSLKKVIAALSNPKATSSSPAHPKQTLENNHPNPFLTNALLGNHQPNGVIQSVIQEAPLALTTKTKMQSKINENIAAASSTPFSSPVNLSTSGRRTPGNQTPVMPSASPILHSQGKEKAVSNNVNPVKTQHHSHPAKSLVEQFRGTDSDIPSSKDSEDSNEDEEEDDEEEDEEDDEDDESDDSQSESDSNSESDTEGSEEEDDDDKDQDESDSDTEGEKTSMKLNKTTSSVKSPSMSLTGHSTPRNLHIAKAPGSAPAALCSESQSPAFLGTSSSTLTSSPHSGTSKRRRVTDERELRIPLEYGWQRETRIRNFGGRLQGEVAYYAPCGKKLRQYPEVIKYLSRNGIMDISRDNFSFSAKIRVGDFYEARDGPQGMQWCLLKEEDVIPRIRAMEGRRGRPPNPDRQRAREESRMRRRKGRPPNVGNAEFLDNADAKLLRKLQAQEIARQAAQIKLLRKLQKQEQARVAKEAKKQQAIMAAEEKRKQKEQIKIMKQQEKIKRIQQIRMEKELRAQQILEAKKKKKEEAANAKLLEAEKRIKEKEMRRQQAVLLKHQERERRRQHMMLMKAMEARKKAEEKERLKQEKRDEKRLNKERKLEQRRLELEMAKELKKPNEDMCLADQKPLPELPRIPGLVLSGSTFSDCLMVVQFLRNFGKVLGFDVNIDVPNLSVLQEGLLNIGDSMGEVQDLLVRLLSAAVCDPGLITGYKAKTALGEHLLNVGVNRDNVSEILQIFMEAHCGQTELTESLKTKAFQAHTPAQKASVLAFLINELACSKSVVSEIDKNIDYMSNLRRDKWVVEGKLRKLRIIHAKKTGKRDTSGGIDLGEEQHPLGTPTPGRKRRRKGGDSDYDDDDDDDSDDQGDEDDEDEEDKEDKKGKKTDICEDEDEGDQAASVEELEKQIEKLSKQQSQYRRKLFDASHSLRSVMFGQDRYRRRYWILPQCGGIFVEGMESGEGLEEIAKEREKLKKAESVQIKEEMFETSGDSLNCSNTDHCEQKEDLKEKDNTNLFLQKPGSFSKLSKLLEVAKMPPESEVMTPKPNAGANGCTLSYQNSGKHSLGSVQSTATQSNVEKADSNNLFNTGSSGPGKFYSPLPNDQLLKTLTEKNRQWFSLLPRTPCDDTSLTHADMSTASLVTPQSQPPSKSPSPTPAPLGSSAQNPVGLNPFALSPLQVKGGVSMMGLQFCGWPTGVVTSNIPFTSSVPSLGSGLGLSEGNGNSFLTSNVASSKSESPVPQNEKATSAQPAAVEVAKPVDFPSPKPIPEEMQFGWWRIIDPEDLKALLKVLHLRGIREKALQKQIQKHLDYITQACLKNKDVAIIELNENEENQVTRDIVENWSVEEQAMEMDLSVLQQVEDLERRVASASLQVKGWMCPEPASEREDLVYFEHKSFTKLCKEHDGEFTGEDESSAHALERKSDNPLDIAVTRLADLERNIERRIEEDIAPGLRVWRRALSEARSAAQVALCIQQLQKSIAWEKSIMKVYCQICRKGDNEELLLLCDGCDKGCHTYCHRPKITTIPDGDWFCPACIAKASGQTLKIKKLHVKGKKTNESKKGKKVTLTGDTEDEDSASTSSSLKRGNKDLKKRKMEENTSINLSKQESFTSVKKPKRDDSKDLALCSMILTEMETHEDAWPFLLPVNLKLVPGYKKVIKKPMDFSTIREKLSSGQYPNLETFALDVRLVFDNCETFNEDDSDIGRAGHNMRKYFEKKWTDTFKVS
Assay: qHTS Assay for Inhibitors of BAZ2B; note: nearly all actives have a fitted effect of over 60% in size
Conditions: AlphaScreen BAZ2B-H3K14Ac peptide displacement; activity change, negative = inhibition: at 114 µM (top of the series)
How it was run: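 AlphaScreen luminescence quantifies BAZ2B engagement of H3K14Ac peptide; the protein and biotinylated peptide are both at 50 nM final, buffer PBS pH 7.4 with 0.01% Tween-20, all steps at room temperature.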
% is set by controls: 0 for no effect and ±100 for the full control effect; potency is the fitted concentration of half-maximal effect; tags give direction and shape of the fitted curve.

SMILES | Potency | activity change, negative = inhibition
COc1ccc(OCCCn2ccnc2)cc1 | active: 22.4 µM | –
CCOC(=O)C1CCN(C(=S)NC(=O)c2cccs2)CC1 | – | inactive: -22.2%
CC(Sc1oc(-c2ccco2)nc1S(=O)(=O)c1ccc(Br)cc1)c1ccccc1 (stereo not given) | inconclusive: 25.1 µM [inhibitor, partial curve] | –
O=C(CN1CCCc2ccccc21)N/N=C/c1c(O)ccc2ccccc12 | – | inactive: -11.8%
COc1cc(OC)c(NC2c3ccccc3C(=O)N2c2cc(C)ccn2)cc1Cl (stereo not given) | inconclusive: 44.7 µM [inhibitor, partial curve] | –
Cc1cc(NC(=O)CSc2cn(CCNC(=O)c3ccc(Cl)cc3)c3ccccc23)no1 | – | inactive: -8.17%
CCCn1nc(C(=O)Nc2ccc3nc(N4CCOCC4)sc3c2)ccc1=O | – | inactive: -7.17%
Cc1nc(-c2ccccc2)sc1-c1ccc(SCC(=O)Nc2ccc(F)cc2F)nn1 | – | inactive: -4.89%
CCOC(=O)C1=C(C)OC(N)=C(C#N)C1c1c(C)nn(-c2ccc(C)cc2)c1Cl (stereo not given) | inconclusive: 100 µM [inhibitor, single point] | –
CCN(CC)CCOc1ccc(/C(=C(\Cl)c2ccccc2)c2ccccc2)cc1 | inconclusive: 31.6 µM [inhibitor, full curve] | –
O=C1CCC(=O)N1c1nc2nc(-c3ccccc3)cc(=O)n2[nH]1 | inconclusive: 89.1 µM [inhibitor, single point] | –
O=C(COC(=O)CNC(=O)c1ccccc1)Nc1nnc(-c2ccccc2)o1 | inconclusive: 89.1 µM [inhibitor, single point] | –
COc1ccc(OC)c(CCNC(=O)c2ccc(CS(=O)Cc3cccc(Cl)c3)o2)c1 (stereo not given) | inconclusive: 89.1 µM [inhibitor, single point] | –
Cc1cccc(C(=O)NC(=S)Nc2ccc3[nH]c(=O)[nH]c3c2)c1 | – | inactive: -12.1%
O=C(c1ccc(N2CCCCC2)c([N+](=O)[O-])c1)N(Cc1ccccc1)c1ccccn1 | active: 31.6 µM | –
O=C(COC(=O)/C=C/c1ccco1)Nc1ncc(Cl)cc1Cl | active: 50.1 µM | –
Nc1nc(SCc2ccc([N+](=O)[O-])cc2)c2ncn(C3OC(CO)C(O)C3O)c2n1 (stereo not given) | inconclusive: 1.58 µM [inhibitor, full curve, poor fit] | –
Cc1noc(/C=C/c2cccnc2)c1[N+](=O)[O-] | – | inactive: -23.3%
CC(C(=O)NCC1(c2ccccc2)CCOCC1)N1CCOCC1 (stereo not given) | inconclusive: 79.4 µM [inhibitor, single point] | –
O=[N+]([O-])c1ccccc1/C=N/Nc1nccnc1Cl | inconclusive: 89.1 µM [inhibitor, single point] | –
CCCNC(=O)C(Cc1ccccc1)NC(=O)c1ccc(C(C)(C)C)cc1 (stereo not given) | inconclusive: 89.1 µM [inhibitor, single point] | –
COc1ccc(CN2C(=O)c3cccnc3C2=O)cc1S(=O)(=O)N1CCCCC1C (stereo not given) | inconclusive: 79.4 µM [inhibitor, single point] | –
O=[N+]([O-])c1ccc(S(=O)(=O)N/N=C/c2ccsc2)cc1 | inconclusive: 79.4 µM [inhibitor, single point] | –
CC1(C)c2ssc(=S)c2-c2ccccc2N1C(=O)CSC1=NCCS1 | active: 25.1 µM | –

SMILES | Potency | activity change, negative = inhibition
CCOc1cccc(CN2CCCC(CNC(=O)c3cccc(OC)c3OC)C2)c1 (stereo not given) | – | inactive: 10.4%
Cc1ccc(S(=O)(=O)NC(C)C(=O)Nc2ccccc2C(=O)N2CCCC2)cc1 (stereo not given) | inconclusive: 89.1 µM [inhibitor, single point] | –
CCOC(=O)N1CCc2c(sc3c2c(=O)n(Cc2ccccc2)c(=O)n3Cc2c(F)cccc2Cl)C1 | inconclusive: 20 µM [inhibitor, full curve, poor fit] | –
CC(=O)Nc1ccc2nc(-c3ccncc3)[nH]c2c1 | inconclusive: 89.1 µM [inhibitor, single point] | –
N#Cc1nc(COc2ccccc2)oc1N1CCCCCC1 | active: 35.5 µM | –
Cc1cc(C(=O)N/N=C/c2c(C)[nH]n(-c3ccccc3)c2=O)n[nH]1 | active: 28.2 µM | –
Oc1c(C2=NCCNC(C(F)(F)F)=C2)ccc2ccccc12 | active: 25.1 µM | –
O=C1CCCC(O)=C1N=Nc1ccc2ncsc2c1 | active: 50.1 µM | –
O=C(CCC(=O)N1CCN(c2ccc(F)cc2)CC1)N1CCN(c2ccc(F)cc2)CC1 | inconclusive: 89.1 µM [inhibitor, single point] | –
Cn1nnnc1SCCNC(=O)C1CCC(=O)N(Cc2ccc(Cl)cc2)C1 (stereo not given) | – | inactive: 1.15%
COc1ccc(/C=N/NC(N)=S)cc1OC(=O)c1cccc2ccccc12 | inconclusive: 31.6 µM [inhibitor, partial curve] | –
Cc1ccc(-c2cc(C(=O)N3CCN(c4ccc(F)cc4)CC3)c3ccccc3n2)o1 | active: 39.8 µM | –
CCOC(=O)/C=C(/C)N1N=C(c2ccc(OC)cc2)CC1c1cccc([N+](=O)[O-])c1 (stereo not given) | inconclusive: 70.8 µM [inhibitor, single point] | –
CCn1c(C(=O)NCCCN2CCc3ccccc3C2)cc2sccc21 | inconclusive: 50.1 µM [inhibitor, partial curve] | –
CC(=O)Nc1cccc(-c2nn[nH]n2)c1 | inconclusive: 89.1 µM [inhibitor, single point] | –
Cc1ccc(CN2CCCn3nc(C(=O)NCCN(C)C)cc3C2=O)cc1 | – | inactive: -34.6%
COC(=O)c1c(NC(=O)CCCOc2ccc(C)cc2)sc2c1C(C(=O)OC)CC2 (stereo not given) | inconclusive: 31.6 µM [inhibitor, partial curve] | –
Clc1cc(Br)ccc1OCCOCCN1CCOCC1 | inconclusive: 89.1 µM [inhibitor, single point] | –
CCc1cccc(CC)c1NC(=O)c1cc(S(=O)(=O)N2CCc3ccccc32)cn1C | inconclusive: 31.6 µM [inhibitor, partial curve] | –
Cc1ccc(C)c(OCCSc2nc3ccccc3n2CC(=O)N2CCOCC2)c1 | inconclusive: 79.4 µM [inhibitor, single point] | –
C=C1c2c(Cl)ccc(O)c2C(O)=C2C(=O)[C@]3(O)C(O)=C(C(N)=O)C(=O)[C@@H](N(C)C)[C@@H]3[C@@H](O)C12 (stereo not given in full) | active: 2.82 µM | –
O=C(CSc1nccn1-c1ccc(Cl)cc1)Nc1nc2ccccc2s1 | inconclusive: 2.24 µM [inhibitor, single point] | –
CC(C)NC(=O)CN(c1cccc(Br)c1)S(C)(=O)=O | inconclusive: 44.7 µM [inhibitor, partial curve, poor fit] | –
OC1(c2ccc(F)cc2)CN(c2ccccc2)C2=[N+]1CCS2 (stereo not given) | inconclusive: 39.8 µM [inhibitor, partial curve] | –

SMILES | Potency | activity change, negative = inhibition
COc1ccc(CCN2CC(C(=O)NCCc3ccc(C)cc3)CC2=O)cc1OC (stereo not given) | active: 56.2 µM | –
CCN(CC)C(=O)C1CCCN(C/C(C)=C/c2ccccc2)C1 (stereo not given) | active: 50.1 µM | –
CCCCN1C(=O)NC2NC(=O)NC21 (stereo not given) | active: 20 µM | –
Cc1ccc(NC(=S)NCCN(C2CCCCC2)C2CCCC2)cc1 | inconclusive: 56.2 µM [inhibitor, partial curve] | –
CCC(C)(C)c1nnc(NC(=O)C2CCN(C(=O)c3ccco3)CC2)s1 | inconclusive: 50.1 µM [inhibitor, partial curve] | –
CCOC(=O)C1=C(C)N(c2ccc(OC)cc2)C(=O)/C1=C\c1cccs1 | inconclusive: 15.8 µM [inhibitor, full curve] | –
O=C(CCSCc1ccc(Cl)cc1)NCc1ccco1 | inconclusive: 31.6 µM [inhibitor, partial curve] | –
O=C(/C(=C/c1cccnc1)n1ccnc1)c1ccc(Cl)cc1Cl | inconclusive: 25.1 µM [inhibitor, full curve, poor fit] | –
Cc1occc1C(=O)NCc1ccco1 | inconclusive: 79.4 µM [inhibitor, single point] | –
COc1ccccc1-c1oc2ccccc2c1C#CCCO | active: 50.1 µM | –
O=C1NC(=S)N/C1=C/c1cccc([N+](=O)[O-])c1 | – | inactive: -11.6%
Cc1c(C(=O)Nc2nc3ccccc3[nH]2)cccc1[N+](=O)[O-] | inconclusive: 79.4 µM [inhibitor, single point] | –
O=C(NCc1cc([N+](=O)[O-])ccc1O)c1cccnc1Sc1ccccc1 | inconclusive: 56.2 µM [inhibitor, partial curve] | –
CC1=C(C(=O)N2CCOCC2)C(c2c(F)cccc2F)NC(=O)N1 (stereo not given) | inconclusive: 89.1 µM [inhibitor, single point] | –
NC(Cc1ccc(Oc2ccc(O)cc2)cc1)C(=O)O (stereo not given) | – | inactive: 6.1%
CCOc1ccc(/C=C2\SC(=S)N(Nc3ccccc3)C2=O)cc1OC | inconclusive: 5.01 µM [inhibitor, full curve, poor fit] | –
Brc1ccc(-c2cc3c(N4CCN(c5ccccc5)CC4)nccn3n2)cc1 | – | inactive: -0.948%
O=C(CCn1cccc1)N1CCc2ccccc21 | inconclusive: 39.8 µM [inhibitor, partial curve] | –
CCN1C(=O)[C@H]2[C@@H](c3ccc(-c4ccccc4)cc3)N[C@@](C)(C(=O)OC)[C@H]2C1=O | inconclusive: 89.1 µM [inhibitor, single point] | –
O=C(CSc1nc2nn(-c3ccccc3)c(=O)c-2c2n1CCCCC2)NCCc1ccccc1 | inconclusive: 70.8 µM [inhibitor, single point] | –
COc1ccc(C(=O)NC(=S)N2CCNC(=O)C2)cc1Br | inconclusive: 79.4 µM [inhibitor, single point] | –
O=C(c1ccco1)N1CCN(C(=O)C2CCCc3c2[nH]c2ccc(Cl)cc32)CC1 (stereo not given) | inconclusive: 50.1 µM [inhibitor, partial curve] | –
